# According to the supplement of paper PMC9151546:
# Most values come without repeats; read them as rough.
# Columns and labels:
# CHO-K1 [1] = assay: micronucleus frequency (% of nucleated events); higher = more micronuclei (genotoxic)
# CHO-K1 [2] = assay: hypodiploid nuclei frequency (% of nucleated events); higher = more hypodiploid events (aneugenic)
# Experimental: (§1)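 Flow-cytometric in vitro micronucleus assay (Litron MicroFlow) in CHO-K1 cells in 96-well plates, 19 concentrations (4.5-200 µM, n=1 per concentration). Without S9, cells were exposed for 24 h and sampled at 48 h. With Aroclor 1254-induced rat liver S9, cells were exposed for 3-4 h and sampled at 27-28 h. Read-outs are %MN and %hypodiploid nuclei relative to nucleated events, and relative survival as the nuclei-to-bead ratio versus the 1% DMSO vehicle control (x100).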
# CHO-K1 [3] = assay: relative survival (nuclei to bead ratio vs DMSO control) (% of vehicle control); higher = more surviving cells
# Experimental: as §1
# [4] = concentration: 4.5 (µM), S9 metabolic activation: with S9, exposure time: 3-4 hours
# [5] = concentration: 4.5 (µM), S9 metabolic activation: without S9, exposure time: 24 hours
# [6] = concentration: 5.63 (µM), S9 metabolic activation: with S9, exposure time: 3-4 hours
# [7] = concentration: 5.63 (µM), S9 metabolic activation: without S9, exposure time: 24 hours
# [8] = concentration: 7.04 (µM), S9 metabolic activation: with S9, exposure time: 3-4 hours
# [9] = concentration: 7.04 (µM), S9 metabolic activation: without S9, exposure time: 24 hours
# [10] = concentration: 8.8 (µM), S9 metabolic activation: with S9, exposure time: 3-4 hours
# [11] = concentration: 8.8 (µM), S9 metabolic activation: without S9, exposure time: 24 hours
# [12] = concentration: 11 (µM), S9 metabolic activation: with S9, exposure time: 3-4 hours
# [13] = concentration: 11 (µM), S9 metabolic activation: without S9, exposure time: 24 hours
# [14] = concentration: 13.7 (µM), S9 metabolic activation: with S9, exposure time: 3-4 hours
# [15] = concentration: 13.7 (µM), S9 metabolic activation: without S9, exposure time: 24 hours
# [16] = concentration: 17.2 (µM), S9 metabolic activation: with S9, exposure time: 3-4 hours
# [17] = concentration: 17.2 (µM), S9 metabolic activation: without S9, exposure time: 24 hours
# [18] = concentration: 21.5 (µM), S9 metabolic activation: with S9, exposure time: 3-4 hours
# [19] = concentration: 21.5 (µM), S9 metabolic activation: without S9, exposure time: 24 hours
# [20] = concentration: 26.8 (µM), S9 metabolic activation: with S9, exposure time: 3-4 hours
# [21] = concentration: 26.8 (µM), S9 metabolic activation: without S9, exposure time: 24 hours
# [22] = concentration: 33.6 (µM), S9 metabolic activation: with S9, exposure time: 3-4 hours
# [23] = concentration: 33.6 (µM), S9 metabolic activation: without S9, exposure time: 24 hours
# [24] = concentration: 41.9 (µM), S9 metabolic activation: with S9, exposure time: 3-4 hours
# [25] = concentration: 41.9 (µM), S9 metabolic activation: without S9, exposure time: 24 hours
# [26] = concentration: 52.4 (µM), S9 metabolic activation: with S9, exposure time: 3-4 hours
# [27] = concentration: 52.4 (µM), S9 metabolic activation: without S9, exposure time: 24 hours
# [28] = concentration: 65.5 (µM), S9 metabolic activation: with S9, exposure time: 3-4 hours
# [29] = concentration: 65.5 (µM), S9 metabolic activation: without S9, exposure time: 24 hours
# [30] = concentration: 81.9 (µM), S9 metabolic activation: with S9, exposure time: 3-4 hours
# [31] = concentration: 81.9 (µM), S9 metabolic activation: without S9, exposure time: 24 hours
# [32] = concentration: 102 (µM), S9 metabolic activation: with S9, exposure time: 3-4 hours
# [33] = concentration: 102 (µM), S9 metabolic activation: without S9, exposure time: 24 hours
# [34] = concentration: 128 (µM), S9 metabolic activation: with S9, exposure time: 3-4 hours
# [35] = concentration: 128 (µM), S9 metabolic activation: without S9, exposure time: 24 hours
# [36] = concentration: 160 (µM), S9 metabolic activation: with S9, exposure time: 3-4 hours
# [37] = concentration: 160 (µM), S9 metabolic activation: without S9, exposure time: 24 hours
# [38] = concentration: 200 (µM), S9 metabolic activation: with S9, exposure time: 3-4 hours
# [39] = concentration: 200 (µM), S9 metabolic activation: without S9, exposure time: 24 hours
# 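For hypodiploid nuclei frequency (% of nucleated events) in this document: hypodiploid nuclei gated on a flow cytometer with 488 nm excitation after SYTOX Green staining, cultures at 37 °C, positive controls vinblastine without S9 and cyclophosphamide with S9.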
# 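For micronucleus frequency (% of nucleated events) in this document: cells lysed with nuclei stained by SYTOX Green, then micronucleus-gated events counted against nucleated events by flow cytometry with 488 nm excitation.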
# 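For relative survival (nuclei to bead ratio vs DMSO control) in this document: Lysed-cell nuclei stained with SYTOX Green and counted against counting beads by flow cytometry at 488 nm excitation, with vinblastine (no S9) and cyclophosphamide (plus S9) as positive controls.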
structure (smiles),measurement,setting,value
"Nc1ccc(Cl)cc1N [4-Chloro-1,2-diaminobenzene]",micronucleus frequency,CHO-K1 [1]; [4],1.12%
same,micronucleus frequency,CHO-K1 [1]; [5],1.06%
same,micronucleus frequency,CHO-K1 [1]; [6],1.06%
same,micronucleus frequency,CHO-K1 [1]; [7],1.2%
same,micronucleus frequency,CHO-K1 [1]; [8],1.54%
same,micronucleus frequency,CHO-K1 [1]; [9],1.36%
same,micronucleus frequency,CHO-K1 [1]; [10],1.24%
same,micronucleus frequency,CHO-K1 [1]; [11],1.3%
same,micronucleus frequency,CHO-K1 [1]; [12],1.08%
same,micronucleus frequency,CHO-K1 [1]; [13],1.3%
same,micronucleus frequency,CHO-K1 [1]; [14],0.86%
same,micronucleus frequency,CHO-K1 [1]; [15],1.74%
same,micronucleus frequency,CHO-K1 [1]; [16],0.9%
same,micronucleus frequency,CHO-K1 [1]; [17],1.54%
same,micronucleus frequency,CHO-K1 [1]; [18],0.8%
same,micronucleus frequency,CHO-K1 [1]; [19],1.82%
same,micronucleus frequency,CHO-K1 [1]; [20],1.06%
same,micronucleus frequency,CHO-K1 [1]; [21],1.48%
same,micronucleus frequency,CHO-K1 [1]; [22],1.08%
same,micronucleus frequency,CHO-K1 [1]; [23],1.8%
same,micronucleus frequency,CHO-K1 [1]; [24],1.46%
same,micronucleus frequency,CHO-K1 [1]; [25],1.7%
same,micronucleus frequency,CHO-K1 [1]; [26],0.96%
same,micronucleus frequency,CHO-K1 [1]; [27],1.24%
same,micronucleus frequency,CHO-K1 [1]; [28],1.4%
same,micronucleus frequency,CHO-K1 [1]; [29],1.78%
same,micronucleus frequency,CHO-K1 [1]; [30],1.58%
same,micronucleus frequency,CHO-K1 [1]; [31],1.5%
same,micronucleus frequency,CHO-K1 [1]; [32],1.1%
same,micronucleus frequency,CHO-K1 [1]; [33],1.72%
same,micronucleus frequency,CHO-K1 [1]; [34],1.58%
same,micronucleus frequency,CHO-K1 [1]; [35],1.9%
same,micronucleus frequency,CHO-K1 [1]; [36],1.4%
same,micronucleus frequency,CHO-K1 [1]; [37],2.16%
same,micronucleus frequency,CHO-K1 [1]; [38],1.6%
same,micronucleus frequency,CHO-K1 [1]; [39],2.38%
same,hypodiploid nuclei frequency,CHO-K1 [2]; [4],0.46%
same,hypodiploid nuclei frequency,CHO-K1 [2]; [5],3.24%
same,hypodiploid nuclei frequency,CHO-K1 [2]; [6],0.3%
same,hypodiploid nuclei frequency,CHO-K1 [2]; [7],1.58%
same,hypodiploid nuclei frequency,CHO-K1 [2]; [8],0.34%
same,hypodiploid nuclei frequency,CHO-K1 [2]; [9],1.32%
same,hypodiploid nuclei frequency,CHO-K1 [2]; [10],0.52%
same,hypodiploid nuclei frequency,CHO-K1 [2]; [11],0.84%
same,hypodiploid nuclei frequency,CHO-K1 [2]; [12],0.32%
same,hypodiploid nuclei frequency,CHO-K1 [2]; [13],1.14%
same,hypodiploid nuclei frequency,CHO-K1 [2]; [14],0.46%
same,hypodiploid nuclei frequency,CHO-K1 [2]; [15],1.02%
same,hypodiploid nuclei frequency,CHO-K1 [2]; [16],0.66%
same,hypodiploid nuclei frequency,CHO-K1 [2]; [17],1.18%
same,hypodiploid nuclei frequency,CHO-K1 [2]; [18],0.4%
same,hypodiploid nuclei frequency,CHO-K1 [2]; [19],1.02%
same,hypodiploid nuclei frequency,CHO-K1 [2]; [20],0.2%
same,hypodiploid nuclei frequency,CHO-K1 [2]; [21],1.88%
same,hypodiploid nuclei frequency,CHO-K1 [2]; [22],0.3%
same,hypodiploid nuclei frequency,CHO-K1 [2]; [23],1.96%
same,hypodiploid nuclei frequency,CHO-K1 [2]; [24],0.24%
same,hypodiploid nuclei frequency,CHO-K1 [2]; [25],5.8%
same,hypodiploid nuclei frequency,CHO-K1 [2]; [26],0.28%
same,hypodiploid nuclei frequency,CHO-K1 [2]; [27],1.38%
same,hypodiploid nuclei frequency,CHO-K1 [2]; [28],0.36%
same,hypodiploid nuclei frequency,CHO-K1 [2]; [29],1.62%
same,hypodiploid nuclei frequency,CHO-K1 [2]; [30],0.54%
same,hypodiploid nuclei frequency,CHO-K1 [2]; [31],1.42%
same,hypodiploid nuclei frequency,CHO-K1 [2]; [32],0.4%
same,hypodiploid nuclei frequency,CHO-K1 [2]; [33],1.7%
same,hypodiploid nuclei frequency,CHO-K1 [2]; [34],0.86%
same,hypodiploid nuclei frequency,CHO-K1 [2]; [35],1.94%
same,hypodiploid nuclei frequency,CHO-K1 [2]; [36],1.5%
same,hypodiploid nuclei frequency,CHO-K1 [2]; [37],2.1%
same,hypodiploid nuclei frequency,CHO-K1 [2]; [38],1.52%
same,hypodiploid nuclei frequency,CHO-K1 [2]; [39],2.84%
same,relative survival,CHO-K1 [3]; [4],85.5
same,relative survival,CHO-K1 [3]; [5],106
same,relative survival,CHO-K1 [3]; [6],92.5
same,relative survival,CHO-K1 [3]; [7],90.1
same,relative survival,CHO-K1 [3]; [8],91.9
same,relative survival,CHO-K1 [3]; [9],109
same,relative survival,CHO-K1 [3]; [10],87.2
same,relative survival,CHO-K1 [3]; [11],102
same,relative survival,CHO-K1 [3]; [12],90.4
same,relative survival,CHO-K1 [3]; [13],105
same,relative survival,CHO-K1 [3]; [14],91.1
same,relative survival,CHO-K1 [3]; [15],98.4
same,relative survival,CHO-K1 [3]; [16],95.8
same,relative survival,CHO-K1 [3]; [17],102
same,relative survival,CHO-K1 [3]; [18],108
same,relative survival,CHO-K1 [3]; [19],104
same,relative survival,CHO-K1 [3]; [20],95.8
same,relative survival,CHO-K1 [3]; [21],123
same,relative survival,CHO-K1 [3]; [22],97
same,relative survival,CHO-K1 [3]; [23],117
same,relative survival,CHO-K1 [3]; [24],91.4
same,relative survival,CHO-K1 [3]; [25],115
same,relative survival,CHO-K1 [3]; [26],98.5
same,relative survival,CHO-K1 [3]; [27],120
same,relative survival,CHO-K1 [3]; [28],96.7
same,relative survival,CHO-K1 [3]; [29],109
same,relative survival,CHO-K1 [3]; [30],113
same,relative survival,CHO-K1 [3]; [31],123
same,relative survival,CHO-K1 [3]; [32],95.5
same,relative survival,CHO-K1 [3]; [33],112
same,relative survival,CHO-K1 [3]; [34],98.2
same,relative survival,CHO-K1 [3]; [35],114
same,relative survival,CHO-K1 [3]; [36],95.8
same,relative survival,CHO-K1 [3]; [37],122
same,relative survival,CHO-K1 [3]; [38],89.1
same,relative survival,CHO-K1 [3]; [39],100
